Measurements from PubChem BioAssay AID662 (National Center for Advancing Translational Sciences (NCATS), 2007).
In all, about 71,000 compounds went through this assay and about 1,800 (2.5%) were called active. Inconclusive means that the source gave no clear call. Such entries were picked first, then a sample of the others. Calls follow the shape of the dose curve; as a rule, active = well fitted activation curve with a large enough effect in the signal ratio, with a control signal flat (not every such curve was filed as active); inconclusive = small, poorly fitted or top-dose-only effect, or effect the other way, or a change in a side signal; inactive = flat fitted curve, though single readings scatter; the % refers to the signal ratio. Potencies of inconclusive entries are doubtful fits and often do not repeat.
Potency is read from the fitted curve at half-maximal effect; tags tell the direction and shape of the fitted curve.

Assay: Cell signaling CRE-BLA (Fsk stim); as to activity change, negative = inhibition: % of control where 0% means no effect
Settings: CHO CRE-bla reporter (cAMP response element driving beta-lactamase), forskolin EC10, beta-lactamase ratio; activity change, negative = inhibition: at 38.2 µM (top of the series) unless noted
Summary of the method: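 CHO CRE-bla cells, overnight plating in Opti-MEM with 0.5% dialyzed FBS; cpd titration + EC10 NKH 477, 3 h 37 °C; CCF4 2 h RT; ex 405/em 460 vs 530 ratio → %Activity, AC50.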
With `C#CCSc1nc(-c2cccs2)ccc1C#N` the Potency was active: 7.94 µM. With `CC(C)N=c1cc2n(-c3ccc(Cl)cc3)c3ccccc3nc-2cc1Nc1ccc(Cl)cc1` the “activity change, negative = inhibition” value was inactive: -2.1% [at 17.1 µM]. In the case of `Cc1cc(C)n(-c2nnc(C)n2NS(C)(=O)=O)n1`, the activity change, negative = inhibition is reported as inconclusive: -4.25%. For `Cn1c(=O)c(-c2ccccc2)nc2cnc(OCc3ccccc3)nc21`, the “activity change, negative = inhibition” value was inactive: -14.1%. With `CCC(=O)c1cc2c(cc1NC(=O)c1cccs1)OCCO2` the Potency was inconclusive: 10 µM [rising, partial curve]. With `CS(=O)(=O)N(CC(=O)N1CCCCC1)c1sc2c(c1C#N)CCCC2` the “activity change, negative = inhibition” value was inactive: 1.44%. In the case of `O=C(c1csnn1)N1CCC2(CCCN(C(c3ccccc3)c3ccccc3)C2)CC1`, the “activity change, negative = inhibition” value is reported as inactive: 22.3%. For `CCC1(CC)NC(=O)N(CC(=O)Nc2sc3c(c2C(N)=O)CCC3)C1=O`, the “activity change, negative = inhibition” value was inactive: -2.6%. In the case of `O=C(O)c1cccc(OCCO)c1`, the activity change, negative = inhibition is reported as inactive: -4.47% [at 7.6 µM]. In the case of `c1nc(NCCN2CCOCC2)c2cc(-c3ccc4c(c3)OCO4)ccc2n1`, the Potency is reported as inconclusive: 20 µM [rising, partial curve, poor fit]. With `CSc1nc(NC(C)(C)C)nc(N2CCOCC2)n1` the Potency was active: 12.6 µM. In the case of `O=C1c2ccccc2C(=O)N1Cc1nn2c(-c3ccc(Cl)cc3)nnc2s1`, the activity change, negative = inhibition is reported as inconclusive: 3.64%. For `CCc1cccc(Nc2cc(C)nc3nc(C)nn23)c1`, the Potency was active: 10 µM. With `COc1ccccc1NC(=O)CSc1ccc2nnc(-c3ccncc3)n2n1` the Potency was inconclusive: 3.16 µM [rising, single point]. In the case of `Cc1cccc(OCC(=O)N(Cc2cccs2)C2CCS(=O)(=O)C2)c1C` (centres undefined), the “activity change, negative = inhibition” value is reported as inactive: -13.6%. In the case of `COc1cc(C(=O)NC2CCN(Cc3nnnn3Cc3cccs3)CC2)cc(OC)c1OC`, the Potency is reported as inconclusive: 10 µM [rising, single point]. For `C/C=C/Cn1c(SCc2ccc(Cl)cc2)nc2c1c(=O)[nH]c(=O)n2C`, the Potency was active: 2 µM. In the case of `COc1ccc(-n2c(=O)c(C)nc3cnc(Nc4ccccc4)nc32)cc1`, the Potency is reported as inconclusive: 5.01 µM [rising, partial curve]. With `CC(C)[C@@H](CC(=O)N[C@@H]1CCNC[C@H]1C(=O)N[C@H](CC(=O)N[C@@H](CCC(=O)O)CC(=O)O)Cc1ccccc1)NC(=O)C[C@H](Cc1c[nH]c2ccccc12)NC(=O)[C@@H]1CNCC[C@H]1N` the “activity change, negative = inhibition” value was inactive: -14.4%. For `CN(Cc1ccco1)c1ncnc2ccc(-c3ccccc3Cl)cc12`, the Potency was inconclusive: 2.51 µM [rising, partial curve]. In the case of `Cc1cc(Nc2ccc(C)c(Br)c2)n2nc(C)nc2n1`, the Potency is reported as inconclusive: 10 µM [rising, partial curve]. In the case of `COc1ccc(C2=NOC(C(=O)N3CCOCC3)C2)cc1OC` (centres undefined), the activity change, negative = inhibition is reported as inconclusive: 11.5%. In the case of `COc1ccc(C2CC(=O)N3CN(c4ccc(C)c(Cl)c4)CSC3=C2C#N)cc1OC` (centres undefined), the “activity change, negative = inhibition” value is reported as inactive: -24.8%. With `COc1ncc2nc(-c3ccccc3)c(=O)n(C[C@H]3CCCO3)c2n1` the Potency was inconclusive: 12.6 µM [rising, single point]. In the case of `Cc1c(Cc2ccccc2)c(=O)oc2cc(OCc3nn[nH]n3)ccc12`, the “activity change, negative = inhibition” value is reported as inactive: 1.88%. With `CCCCCCN(C(=O)CCCCCN1C(=O)NC(c2ccc(C(F)(F)F)cc2)C(C(=O)OCc2ccccc2)=C1C)C(C(=O)NCCCC)c1ccc(OCC(=O)OC)c(C(=O)OC)c1` (centres undefined) the “activity change, negative = inhibition” value was inactive: 19%. With `COc1cccc(-c2nnc(SCC(=O)OC(C)C)n2Cc2ccco2)c1` the activity change, negative = inhibition was inconclusive: 19.7%. For `CCN(CC)CCn1c(-c2ccccc2)nc2c(NCCOC)nc(C)nc21`, the Potency was inconclusive: 10 µM [rising, partial curve]. With `COc1cccc(Cn2c(=O)c(-c3cn(C)c4ccccc34)nc3cncnc32)c1` the Potency was inconclusive: 0.398 µM [rising, full curve]. For `OCC(CO)(CO)n1cnnn1`, the activity change, negative = inhibition was inconclusive: -5.6%. With `CCCC1(CCC)NC(=O)NC1=O` the “activity change, negative = inhibition” value was inactive: -12.6%. In the case of `O=C(c1ccc(N2CCCCS2(=O)=O)cc1)N1CCN(c2ccc(N3CCOCC3)nn2)CC1`, the “activity change, negative = inhibition” value is reported as inactive: 3.22%. With `CCn1c(=O)c2c(nc3n2CCCN3CCc2ccccc2)n(C)c1=O` the Potency was inconclusive: 2.51 µM [rising, full curve]. With `COc1ccc(-c2nc3cnc(OC)nc3n(C)c2=O)cc1` the activity change, negative = inhibition was inconclusive: 24.2%. With `COc1ccc(NC(=O)c2ccco2)c(NC(=O)Cc2cccs2)c1` the activity change, negative = inhibition was inconclusive: -5.44%. With `COc1ccc(OC)c(NC(=O)CSc2nc3ccccc3c(=O)n2CCNC(C)=O)c1` the Potency was active: 10 µM. In the case of `CCOC(=O)c1c(C2CC2)csc1NC(=O)CSCc1c(C)noc1C`, the Potency is reported as inconclusive: 10 µM [rising, partial curve]. For `Cn1c(=O)c2cc(S(=O)(=O)NCCC(=O)Nc3ccc(Cl)cc3)ccc2n(C)c1=O`, the activity change, negative = inhibition was inconclusive: -19%. For `COc1ccc(CCn2c(=S)[nH]c3cc(C(=O)NCc4ccco4)ccc3c2=O)cc1OC`, the Potency was inconclusive: 0.794 µM [falling, full curve, poor fit]. For `CCn1c(=O)cc(OCC(=O)NC2CCCCC2)c2ccccc21`, the Potency was inconclusive: 10 µM [rising, partial curve]. With `N[C@@H]1CONC1=O` the activity change, negative = inhibition was inconclusive: -0.708% [at 17.1 µM]. For `O=C(NCCCn1ccnc1)c1cc(S(=O)(=O)N2CCOCC2)c(Cl)cc1Cl`, the Potency was inconclusive: 12.6 µM [rising, single point]. With `CCNc1nc(NCC)n2c(SCc3ccc(F)cc3)nnc2n1` the Potency was inconclusive: 12.6 µM [rising, single point]. With `Cn1nc(-c2ccc(N3CCOCC3)c(NC(=O)COc3ccccc3)c2)c2ccccc2c1=O` the Potency was inconclusive: 2.51 µM [rising, partial curve]. With `CCCCn1c(SCC(=O)N2CC(=O)Nc3ccccc32)nnc1-c1ccoc1C` the activity change, negative = inhibition was inconclusive: -2.93%. With `CSc1ccccc1NC(=O)c1c(C)noc1C` the Potency was active: 12.6 µM. With `Cc1ccc(CCNC(=O)CCNS(=O)(=O)c2ccc3c(c2)c(=O)n(C)c(=O)n3C)cc1` the activity change, negative = inhibition was inconclusive: 1.84%. In the case of `O=C1CCCc2c1cc(C(=O)Nc1ccc(Br)cn1)c(=O)n2-c1ccccc1`, the Potency is reported as inconclusive: 12.6 µM [rising, single point]. For `COc1ccc(NC2SC(=O)N(CC(=O)O)C2=O)cc1` (centres undefined), the Potency was inconclusive: 10 µM [falling, single point]. For `COc1ccccc1NC(=O)Cn1cnc2c(cnn2-c2ccccc2)c1=O`, the Potency was inconclusive: 10 µM [rising, partial curve]. With `CC1CCCCN1C(=O)Cn1c(=O)n(CCC(=O)NCc2ccco2)c(=O)c2sccc21` (centres undefined) the activity change, negative = inhibition was inconclusive: 14.6%. In the case of `O=C(O)c1cccc(CN2C(=O)SC(Nc3ccccc3)C2=O)c1` (centres undefined), the “activity change, negative = inhibition” value is reported as inactive: -0.301%. In the case of `N/N=C1/CC(=O)NC(=O)N1`, the activity change, negative = inhibition is reported as inconclusive: 27.5% [at 7.6 µM]. In the case of `Cc1nnc(NC(=O)CSc2nnc(Cc3ccccc3)n2-c2ccccc2)s1`, the Potency is reported as inconclusive: 12.6 µM [rising, single point]. For `O=C(CSc1nnc2scc(-c3ccc(Cl)cc3)n12)NCc1ccc2c(c1)OCO2`, the Potency was inconclusive: 12.6 µM [rising, partial curve]. In the case of `CCCCc1cc(=O)oc2cc(OCC(=O)N(CC)CC)c(Cl)cc12`, the Potency is reported as inconclusive: 10 µM [rising, single point]. With `Cc1ccc(S(=O)(=O)NCCCNC(=O)N2CCOCC2)cc1` the “activity change, negative = inhibition” value was inactive: -1.68%. With `Cc1cc(NC(=O)CC(C)(C)C)nc2c1c(=O)oc1ccccc12` the Potency was active: 2 µM. In the case of `O=c1c2c3c(sc2ncn1/N=C/c1ccco1)CCCC3`, the “activity change, negative = inhibition” value is reported as inactive: 20.9%. For `O=C(CSc1nc2ccsc2c(=O)n1Cc1ccccc1)NCc1ccco1`, the activity change, negative = inhibition was inconclusive: -14.8%. For `CCn1cnc2cc(NCc3ccc(C)cc3)ccc21`, the Potency was inconclusive: 6.31 µM [rising, partial curve]. For `CC(C)CCNC(=O)NC(=O)CSc1nnc(-c2ccccc2Br)o1`, the activity change, negative = inhibition was inconclusive: -4.59%. With `O=C(c1ccco1)N1CCN(c2cc(=O)n(C3CCCCC3)c(=O)[nH]2)CC1` the activity change, negative = inhibition was inconclusive: -22.6%. With `COc1ccc(NC(=O)CSc2nc(-c3ccncc3)nn2CC(=O)N2CCCC2)cc1` the “activity change, negative = inhibition” value was inactive: -1.51%. For `COC(=O)c1ccccc1NC(=O)c1noc2c1CC(C(C)(C)C)CC2` (centres undefined), the “activity change, negative = inhibition” value was inactive: -12.7%. For `N#Cc1c(-c2ccccc2)cc(-c2ccco2)c(C#N)c1N`, the activity change, negative = inhibition was inconclusive: -6.67%. For `COc1ccc(-c2cn3cccnc3n2)cc1NC(=O)C1CCCC1`, the activity change, negative = inhibition was inconclusive: 23.3%. For `C=CCc1ccccc1OCC(O)Cn1ccnc1C` (centres undefined), the activity change, negative = inhibition was inconclusive: 22.3% [at 7.6 µM]. With `COC(=O)C(C)Sc1nc2c(c(=O)n(C)c(=O)n2C)n1Cc1cccc(C)c1` (centres undefined) the “activity change, negative = inhibition” value was inactive: 9.27%. With `Cc1ccc2nc(/C(C#N)=N/O)[nH]c2c1` the Potency was inconclusive: 10 µM [rising, partial curve]. With `CC1CN=C(NC2CCCCC2C)S1` (centres undefined) the “activity change, negative = inhibition” value was inactive: 2.74%. In the case of `Cn1c(CCNC(=O)c2ccco2)nc2cc(NS(=O)(=O)c3ccccc3)ccc21`, the activity change, negative = inhibition is reported as inconclusive: -9.77%. With `CN=C1SC(CC(=O)Nc2sc(C)c(C)c2C(=O)OC)C(=O)N1C` (centres undefined) the Potency was inconclusive: 6.31 µM [rising, single point]. In the case of `CCOc1cc(NC(=O)C2CCCCC2)c(OCC)cc1NC(=O)c1ccco1`, the Potency is reported as inconclusive: 5.01 µM [rising, single point]. In the case of `CCOC(=O)c1c(C)[nH]c(C)c1C(=O)COC(=O)CNC(=O)c1ccc(OCC)cc1`, the activity change, negative = inhibition is reported as inconclusive: 7.65%. With `O=C1c2ccccc2-c2ncnc3c(N4CCOCC4)cc(N4CCOCC4)c1c23` the Potency was active: 2.51 µM. For `Cn1c(SCc2ccc(C#N)cc2)nnc1-c1cccc(Cl)c1`, the activity change, negative = inhibition was inconclusive: -13.7%. With `O=C(CCN1CCN(CCC(=O)c2ccccc2)CC1)c1ccccc1` the “activity change, negative = inhibition” value was inactive: 12.3%. For `Cc1nn(-c2ccccc2)c2c1C1(C(=O)Nc3ccccc31)N1C(=N2)Sc2ccccc21` (centres undefined), the activity change, negative = inhibition was inconclusive: -29.6%.
